{"source": "PubChem BioAssay AID2451", "about": "(National Center for Advancing Translational Sciences (NCATS), 2010)", "note": "Where “and” joins values, the source holds several entries; their conditions need not be identical. Equal values may be shown once. Screen size: about 290,000 compounds; about 2,100 (0.72%) were called active. The shares of active, inactive and inconclusive entries below differ from those in the screen. Calls follow the shape of the dose curve; as a rule, active = well fitted inhibition curve with a large enough effect; inconclusive = small, poorly fitted or top-dose-only effect, or effect the other way; inactive = flat fitted curve, though single readings scatter. Potencies beside an inconclusive call are fits to weak or partial responses and may not hold up. % is scaled to controls: 0 for no effect and ±100 for the full control effect; potency is read from the fitted curve at half-maximal effect; tags tell the direction and shape of the fitted curve.", "data": [{"target": "Fructose-bisphosphate aldolase (Giardia intestinalis (strain ATCC 50803 / WB clone C6)) (UniProt A8B2U2)", "sequence (A8B2U2 whole entry, looked up)": "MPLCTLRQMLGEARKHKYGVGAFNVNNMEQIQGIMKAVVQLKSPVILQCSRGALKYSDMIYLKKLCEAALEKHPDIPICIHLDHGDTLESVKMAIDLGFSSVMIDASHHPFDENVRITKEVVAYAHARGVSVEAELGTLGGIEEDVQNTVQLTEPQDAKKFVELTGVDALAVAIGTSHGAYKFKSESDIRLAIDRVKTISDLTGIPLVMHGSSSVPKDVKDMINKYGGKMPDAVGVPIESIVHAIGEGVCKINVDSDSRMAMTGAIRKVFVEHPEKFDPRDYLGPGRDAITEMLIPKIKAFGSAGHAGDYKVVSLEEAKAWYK", "experiment": "qHTS Assay for Inhibitors of Fructose-1,6-bisphosphate Aldolase from Giardia Lamblia; also: nearly all actives have a fitted effect of over 55% in size", "settings": "purified Giardia FBPA; activity, negative = inhibition: at 59.6 µM (top of the series) unless noted", "method_in_brief": "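40 nM FBPA preincubated 10 min at RT with compound (up to 57.5 uM final), then substrate plus GAPDH/TPI/NAD/arsenate coupling and diaphorase/resazurin added. Fluorescence read after 20 min at RT, 525/598 nm.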", "values": [{"smiles": "Cc1ccccc1C(N)c1ccncc1", "note": "(centres undefined)", "Potency": "active: 14.1 µM"}, {"smiles": "O=c1c2cccnc2[nH]c(=S)n1CCCN1CCN(c2ccc(F)cc2)CC1", "activity, negative = inhibition": "inconclusive: 31.3% [activator]"}, {"smiles": "Cc1[nH]nc2c1C(Cc1ccccc1)C(C#N)=C(N)O2", "note": "(centres undefined)", "Potency": "inactive"}, {"smiles": "CN1CCN(CC(=O)Nc2nc(-c3c[nH]c4ccccc34)cs2)CC1", "Potency": "inconclusive: 17.7 µM [inhibitor, single point]"}, {"smiles": "N#CC(C#N)=Cc1cccn1-c1ccc(C(=O)O)cc1", "Potency": "inconclusive: 17.7 µM [activator, single point]"}, {"smiles": "Fc1ccc2nc(N3CCCC3)sc2c1", "Potency": "inactive"}, {"smiles": "COc1cc2c(CCNC(C)=O)c[nH]c2cc1O", "Potency": "inconclusive: 7.06 µM [inhibitor, partial curve]"}, {"smiles": "Cc1ccc(NC(=S)Nn2cnnc2)c(C)c1", "Potency": "active: 12.6 µM"}, {"smiles": "CC1(C)C2CCC(C2)C1(C)NC(=O)CN1CCN(Cc2ccccc2)CC1", "note": "(centres undefined)", "Potency": "active: 15.8 µM"}, {"smiles": "O=C(Nc1cccc(C(F)(F)F)c1)c1cccnc1", "Potency": "inactive"}, {"smiles": "CS(=O)(=O)N1N=C(c2ccc(Br)cc2)CC1c1ccc2c(c1)OCO2", "note": "(centres undefined)", "Potency": "inactive"}, {"smiles": "CCN(CC)CCCN1C=C2C(=O)C(C)(OC(=O)C3CCCC3)C(=O)C=C2C=C1c1ccsc1", "note": "(centres undefined)", "Potency": "inconclusive: 500 nM [inhibitor, full curve] and inconclusive: 500 nM [inhibitor, partial curve]"}, {"smiles": "O=C1C(Cl)=C(N2CCC(C(=O)O)CC2)C(=O)c2ccccc21", "Potency": "inconclusive: 1.58 µM [inhibitor, full curve]"}, {"smiles": "O=C(CCN1CCc2ccccc2C1)Nc1ccc(F)cc1", "Potency": "inconclusive: 28.1 µM [inhibitor, single point]"}, {"smiles": "O=C(CCNC(=O)c1ccc(Br)o1)NCc1ccccn1", "Potency": "inconclusive: 22.3 µM [inhibitor, single point]"}, {"smiles": "COc1ccc(-c2coc3ccc(OC4OC(COC(C)=O)C(OC(C)=O)C(OC(C)=O)C4OC(C)=O)cc3c2=O)cc1", "note": "(centres undefined)", "Potency": "inactive"}, {"smiles": "Cc1ccc(C)c(-n2c(-c3cccnc3)n[nH]c2=S)c1", "Potency": "inconclusive: 19.9 µM [inhibitor, partial curve]"}, {"smiles": "O=C(CNC1CCCCCC1)Nc1ccccc1N1CCOCC1", "Potency": "inconclusive: 15.8 µM [inhibitor, partial curve]"}, {"smiles": "CN1CCN(c2ncc3ncc(=O)n(CCC#N)c3n2)CC1", "Potency": "inactive"}, {"smiles": "Clc1ccc(SCCOCCN2CCOCC2)cc1", "Potency": "active: 17.8 µM"}, {"smiles": "Cc1ccc2[nH]c3c(c2c1)CN(C(=O)CN1CC(C)OC(C)C1)CC3", "note": "(centres undefined)", "Potency": "inconclusive: 11.2 µM [inhibitor, partial curve]"}, {"smiles": "O=C(/C=C/c1ccc(O)cc1)c1ccc(NC2=C(N3CCCCC3)C(=O)c3ccccc3C2=O)cc1", "Potency": "inconclusive: 0.561 µM [inhibitor, full curve]"}, {"smiles": "O=S(=O)(NCCN1CCOCC1)c1cc(Cl)ccc1Cl", "Potency": "inactive"}, {"smiles": "Cc1ccc(OC(=O)c2cncc(Br)c2)c(C)c1", "activity, negative = inhibition": "inconclusive: 53% [activator]"}, {"smiles": "Oc1c(Cl)cc(Cl)cc1/C=N/c1ncn[nH]1", "Potency": "inconclusive: 31.6 µM [inhibitor, single point]"}, {"smiles": "COc1cccc(NC(=O)C(=O)NCc2ccncc2)c1", "Potency": "inactive"}, {"smiles": "COC(=O)c1sc(NC(=S)NC(=O)c2cccc(Br)c2)nc1C", "Potency": "active: 11.2 µM"}, {"smiles": "Cc1cc(C)cc(OCC(=O)O/N=C(\\N)c2ccccc2Cl)c1", "Potency": "inactive"}, {"smiles": "CCN1CCc2c(C#N)c(N3CCCCC3)nc(NCc3ccccc3)c2C1", "Potency": "inconclusive: 17.8 µM [inhibitor, partial curve, poor fit]"}, {"smiles": "COc1cc(CNc2ccc(O)cc2)cc(Br)c1OCc1ccccc1", "Potency": "inconclusive: 17.7 µM [inhibitor, single point]"}, {"smiles": "CN(C)S(=O)(=O)c1ccc(S(=O)(=O)NCCN2CCOCC2)cc1", "Potency": "inconclusive: 14.1 µM [inhibitor, partial curve]"}, {"smiles": "Cc1cc(C)nc(SC2CC(=O)N(c3ccc(Cl)cc3)C2=O)n1", "note": "(centres undefined)", "Potency": "inactive"}, {"smiles": "COc1ccc(C(O)(CCC(C)C)C(CN2CCOCC2)c2ccccc2)cc1", "note": "(centres undefined)", "Potency": "inactive"}, {"smiles": "Cc1noc(C)c1-c1ccc2ncnc(NC(C)c3ccccc3)c2c1", "note": "(centres undefined)", "Potency": "inactive"}, {"smiles": "COc1ccc(-c2ccc(C(c3c(C)[nH][nH]c3=O)c3c(C)[nH][nH]c3=O)o2)c([N+](=O)[O-])c1", "Potency": "active: 6.29 µM"}, {"smiles": "CCOc1ccc(CN2CCN(S(=O)(=O)c3ccc(NC(C)=O)cc3)CC2)cc1OC", "Potency": "inconclusive: 19.9 µM [inhibitor, partial curve]"}, {"smiles": "COCCNC(=O)c1onc(CSc2ccc(C(C)C)cc2)c1C(=O)O", "Potency": "inconclusive: 15.8 µM [activator, single point]"}, {"smiles": "CCc1ccccc1N1C(=O)NC(=O)/C(=C\\c2cc(C)n(C)c2C)C1=O", "Potency": "inactive"}, {"smiles": "Cc1ccc(-c2cc(C(=O)Nc3cc(C)on3)c3ccccc3n2)c(C)c1", "Potency": "inactive"}, {"smiles": "Cc1cc(NC(=O)CSc2nc(N)c(NC(=O)c3ccco3)c(=O)[nH]2)no1", "Potency": "inconclusive: 28.1 µM [inhibitor, single point]"}, {"smiles": "CCCCCC(=O)Cc1cc(O)cc2c1C(=O)Oc1cc(O)c(C(=O)O)c(CCCCC)c1O2", "Potency": "inconclusive: 25.1 µM [activator, single point]"}, {"smiles": "Nc1ccc2oc3ccccc3c2c1", "Potency": "inconclusive: 17.7 µM [inhibitor, single point]"}, {"smiles": "COc1ccc(N)cc1-n1c(C)ccc1C", "Potency": "inconclusive: 0.561 µM [inhibitor, full curve]"}, {"smiles": "C/C(=C\\c1ccccc1)CN1CCC(C(=O)N2CCCC(C)C2)CC1", "note": "(centres undefined)", "Potency": "inconclusive: 22.3 µM [inhibitor, partial curve]"}, {"smiles": "CCNC(=O)Oc1ccc[nH]c1=O", "Potency": "active: 3.97 µM"}, {"smiles": "O=c1c(O)c(-c2cc(O)c(O)c(O)c2)oc2cc(O)ccc12", "Potency": "inconclusive: 11.2 µM [inhibitor, partial curve]"}, {"smiles": "COc1ccc2c(c1)CCc1c-2nc2ccccc2c1N1CCOCC1", "Potency": "inconclusive: 8.89 µM [inhibitor, partial curve]"}, {"smiles": "Cc1cccc(NC(=O)c2nc[nH]c2C(=O)N[C@@H](C)C(=O)OC(C)(C)C)c1", "Potency": "inconclusive: 17.7 µM [inhibitor, single point]"}, {"smiles": "O=S(=O)(NCc1ccco1)c1ccc(S(=O)(=O)N2CCCC2)cc1", "Potency": "inconclusive: 3.97 µM [inhibitor, partial curve]"}, {"smiles": "[O-]/[N+](=C\\c1cccc(Br)c1)c1ccccc1", "Potency": "inconclusive: 19.9 µM [inhibitor, single point]"}, {"smiles": "COc1ccc(/C=N/NC(=O)c2cc(O)c(O)c(O)c2)cc1Cn1cc([N+](=O)[O-])cn1", "Potency": "inconclusive: 12.6 µM [inhibitor, partial curve]"}, {"smiles": "C(=N/N1CCN(c2ccccc2)CC1)/c1ccncc1", "Potency": "inactive"}, {"smiles": "CCOC(=O)CSc1nc2ccc(N3CCOCC3)cc2c(=O)n1Cc1ccc2c(c1)OCO2", "Potency": "inconclusive: 3.15 µM [inhibitor, full curve]"}, {"smiles": "C=CCN(CC=C)S(=O)(=O)c1ccc(C(=O)Nc2nnc(CSC)o2)cc1", "Potency": "inconclusive: 22.3 µM [inhibitor, single point]"}, {"smiles": "NC(=O)C1CCN(C(=O)CC2C(=O)NCCN2Cc2cccc(Oc3ccccc3)c2)CC1", "note": "(centres undefined)", "Potency": "inconclusive: 35.5 µM [inhibitor, single point]"}, {"smiles": "Cc1nn(C(C)C(=O)N/N=C/c2ccc(N(C)C)cc2)c(C)c1[N+](=O)[O-]", "note": "(centres undefined)", "Potency": "inactive"}, {"smiles": "CSc1nc(=S)n(-c2cc(C)ccc2C)c(C)c1C(C)=O", "Potency": "inconclusive: 28.2 µM [inhibitor, single point]"}, {"smiles": "O=S(=O)(c1ccc(F)cc1)N1CCN(CC(O)COc2ccccc2F)CC1", "note": "(centres undefined)", "Potency": "active: 28.2 µM"}, {"smiles": "O=C(Nc1ccccc1)Nc1cccn(Cc2c(F)cccc2Cl)c1=O", "Potency": "inconclusive: 5 µM [inhibitor, single point]"}, {"smiles": "CCC(=O)Nc1nc2nc(C)cc(=O)n2[nH]1", "Potency": "inconclusive: 39.8 µM [inhibitor, single point]"}, {"smiles": "CCN(CC)CCCN(C(=O)c1ccco1)c1nc(-c2ccc(Cl)cc2)cs1", "Potency": "inconclusive: 20 µM [inhibitor, partial curve]"}, {"smiles": "COc1ccc(NC(=O)Nc2cc(C)cc(C)c2)cn1", "Potency": "inactive"}, {"smiles": "CCOC(=O)C1CCN(c2cc3c(cc2NC(=O)c2cc(OC)ccc2Br)n(C)c(=O)n3C)CC1", "Potency": "inconclusive: 25.1 µM [inhibitor, partial curve]"}, {"smiles": "O=[N+]([O-])c1cc2c(cc1CN1CCN(c3ccccc3F)CC1)OCO2", "Potency": "inconclusive: 25.1 µM [inhibitor, partial curve]"}, {"smiles": "O=C(Cc1cn(Cc2cccc(Cl)c2)c2ccccc12)N1CCCC1", "Potency": "inactive"}, {"smiles": "Cc1ccc(S(=O)(=O)CCC(=O)Nc2ccccc2Cl)cc1", "Potency": "inactive"}, {"smiles": "CCCc1[nH]nc2c1C(c1ccc(OC)c(CSC3=NCCS3)c1)C(C#N)=C(N)O2", "note": "(centres undefined)", "Potency": "inconclusive: 12.6 µM [inhibitor, partial curve]"}, {"smiles": "CC(C)=C1C2CCC1C(C(=O)NCc1ccccc1)C2C(=O)O", "note": "(centres undefined)", "Potency": "inconclusive: 28.2 µM [inhibitor, partial curve]"}, {"smiles": "Oc1ccc(/C=N/NC(=S)Nc2cccnc2)c(O)c1O", "Potency": "active: 7.06 µM"}, {"smiles": "Oc1ccc2ccccc2c1C=NCc1cn2ccsc2n1", "Potency": "active: 1 µM"}, {"smiles": "COc1ccccc1N1CCN(Cc2cc(Br)c(O)c3ncccc23)CC1", "Potency": "inconclusive: 2.51 µM [inhibitor, full curve]"}, {"smiles": "COc1cc(OC)c2c(=O)c(OC)c(-c3ccc(OC)c(OC)c3)oc2c1", "Potency": "inactive"}, {"smiles": "CCCCc1ccc(C2C(C#N)=C(N)SC(N)=C2C#N)s1", "Potency": "inconclusive: 5 µM [inhibitor, full curve]"}, {"smiles": "CN1C2CC(OC(=O)C(CO)c3ccccc3)C[C@@H]1[C@H]1OC21", "note": "(some centres undefined)", "Potency": "inactive"}]}]}
